Measurements published in PubChem BioAssay AID2100 (National Center for Advancing Translational Sciences (NCATS), 2009).
Among all 300,000 compounds or so, about 1,200 (0.4%) were called active. Inconclusive means that the source gave no clear call. Such entries were picked first, then a sample of the others. Calls come from the whole dose curve; as a rule, active = well fitted inhibition curve with a large enough effect; inconclusive = small, poorly fitted or top-dose-only effect, or another doubt; inactive = no such curve, though single readings can be large or run the other way. Potencies of inconclusive entries are doubtful fits and often do not repeat.

biological target: Lysosomal alpha-glucosidase (Homo sapiens) (UniProt P10253); assay: qHTS Assay for Inhibitors and Activators of Human alpha-Glucosidase Cleavage of Glycogen; settings: recombinant GAA, glycogen substrate, Amplex Red glucose oxidase fluorescence; series mostly up to 76.4 µM
How it was run: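 Recombinant human alpha-glucosidase (4 nM final) hydrolysed bovine liver glycogen (30 ug) for 40 min at 37 C in pH 5.0 citrate/phosphate with 0.01% Tween-20. Released glucose detected by glucose oxidase/Amplex Red, Ex 573/Em 610 nm. Compounds up to 77 uM; AC50 from Hill fits.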
Potency is the fitted concentration of half-maximal effect.

Row | Structure (SMILES) | Potency
1 | O=C(NN1C(=O)CSC1=S)c1cccnc1 | inconclusive: 19.8 µM [inhibitor, single point]
2 | Oc1ccc(/C=N/Nc2ccnc3cc(Cl)ccc23)c(O)c1 | inconclusive: 35.5 µM [inhibitor, partial curve]
3 | O=C(O)c1ccccc1NN=C1CCCCC1 | inconclusive: 10 µM [inhibitor, partial curve]
4 | CN(CCO)c1nc(N)c2c(N)nc3c(c2c1C#N)CC(=O)N3C1CCCC1 | inconclusive: 50.1 µM [activator, single point]
5 | CCOC(=O)C(CC)/C(C)=N/NC(=O)c1ccc([N+](=O)[O-])cc1 (centres undefined) | inconclusive: 28.2 µM [inhibitor, partial curve]
6 | Cc1[nH]n(-c2ccccc2)c(=O)c1C(C[N+](=O)[O-])c1ccc(Br)cc1 (centres undefined) | inconclusive: 35.5 µM [inhibitor, single point]
7 | CCOc1ccc(C(=O)N(Cc2ccc(N(C)C)cc2)C2CCS(=O)(=O)C2)cc1 (centres undefined) | inconclusive: 8.84 µM [inhibitor, full curve, poor fit]
8 | O=C1NC(=S)S/C1=C/c1ccc(N2CCOCC2)o1 | inconclusive: 50.1 µM [inhibitor, single point]
9 | COc1cc(/C=N/NC(=S)NC2CC3CC2C2C=CCC32)ccc1O (centres undefined) | inconclusive: 7.94 µM [inhibitor, full curve]
10 | Cc1c(C(=O)N/N=C/C(C)C)[nH]c2ccc([N+](=O)[O-])cc12 | inconclusive: 28.2 µM [inhibitor, single point]
11 | COc1cc(/C=C2\COC/C(=C\c3ccc(O)c(OC)c3)C2=O)ccc1O | inconclusive: 22.4 µM [inhibitor, partial curve]
12 | Cc1cc(C)n2c(Nc3ccccc3C)c(-c3cccs3)nc2n1 | inconclusive: 4.47 µM [inhibitor, full curve]
13 | S=C(NCCN1CCOCC1)N/N=C/c1cccs1 | inconclusive: 22.4 µM [inhibitor, partial curve]
14 | COc1cc2c(cc1NCc1ccccn1)oc1ccccc12 | inconclusive: 44.7 µM [inhibitor, single point]
15 | COc1ccc(/C=C/C(=O)N2CCC(c3nc4ccccc4o3)CC2)cc1OC | inactive
16 | Oc1ccc(N2CCN(Cc3ccc(OCCCN4CCCCC4)cc3)CC2)cc1 | inconclusive: 3.55 µM [inhibitor, full curve, poor fit]
17 | Cc1ccc(-c2nc3ccccn3c2Nc2ccc3c(c2)OCCO3)s1 | inconclusive: 11.2 µM [inhibitor, partial curve]
18 | CCOc1ccc(NCCC#N)cc1 | inconclusive: 22.2 µM [inhibitor, partial curve, poor fit]
19 | COc1cccc(CNc2ccc([N+](=O)[O-])cc2Cl)c1O | inconclusive: 14.1 µM [inhibitor, partial curve]
20 | Cc1cccc(NC(=S)N(CCCN2CCOCC2)Cc2cn(C)c3ccccc23)c1 | inactive
21 | Cc1nc(C)c(-c2csc(Nc3ccc(O)c(C(=O)O)c3)n2)s1 | inconclusive: 44.7 µM [inhibitor, single point]
22 | CNCc1ccccc1Sc1ccc(O)c(O)c1 | inconclusive: 10 µM [inhibitor, single point]

Row | Structure (SMILES) | Potency
23 | CC1(C)CC(NC(=O)C(=O)NCCc2ccccc2)CC(C)(C)N1 | inconclusive: 7.08 µM [inhibitor, single point]
24 | Cc1ccc(CNC(=O)c2sc3nc4n(c(=O)c3c2C)CCCC4)cc1 | inconclusive: 50.1 µM [inhibitor, single point]
25 | O=c1c2c3c(sc2n2cnnc2n1Cc1ccccc1)CN(Cc1ccccc1)CC3 | inconclusive: 39.5 µM [activator, single point]
26 | COc1cc(Nc2cc(C)nc3nc(C)nn23)cc(OC)c1OC | inconclusive: 39.8 µM [inhibitor, single point]
27 | CCOC(=O)Cc1csc(N/N=C\c2cccc(Br)c2)n1 | inconclusive: 28 µM [inhibitor, partial curve]
28 | O=C(Nc1ccc(Br)cc1)N1CCC(CN2CCCC2)CC1 | inactive
29 | CCOc1cc(/C=N/Nc2nc(N3CCCC3)nc(N3CCCC3)n2)ccc1O | inconclusive: 50.1 µM [inhibitor, single point]
30 | O=C(NC(=S)N1CCN(c2ccc(O)cc2)CC1)c1cccs1 | active: 10 µM
31 | C/C(=N\Nc1cccc2cccnc12)c1ccccc1O | inconclusive: 25.1 µM [inhibitor, single point]
32 | O=c1[nH]c(CN2CCN(c3ccccc3O)CC2)nc2ccccc12 | active: 7.94 µM
33 | Oc1ccc(/C=N/Nc2ccc3ccccc3c2)c(O)c1 | inconclusive: 14 µM [inhibitor, partial curve]
34 | COc1cc(/C=N/N=C2/SCC(=O)N2c2ccc(O)cc2)ccc1O | inconclusive: 24.9 µM [inhibitor, single point]
35 | Cc1c(CCO)c(=O)n(-c2ccccc2)n1S(=O)(=O)c1c(Cl)cc(Cl)cc1Cl | inactive
36 | CN(C)c1ccc(C=Nc2ccc(N(C)C)cc2)cc1 | inactive
37 | Fc1ccc(NC(=S)Nc2nccs2)cc1 | inconclusive: 39.5 µM [inhibitor, single point]
38 | CCOC(=O)CNc1c(-c2ccc(OC)cc2)nc2ccc(Cl)cn12 | inconclusive: 44.7 µM [inhibitor, single point]
39 | O=C(NNC(=S)Nc1ccccc1)c1ccc(O)cc1 | inconclusive: 15.8 µM [inhibitor, partial curve]
40 | C=CCn1c(=O)c2c(C)c(C)sc2n2c(Nc3ccc(OC)cc3)nnc12 | inconclusive: 35.5 µM [inhibitor, single point]
41 | Cc1ccc(S(=O)(=O)NNC(=O)c2sc3nc(C)cc(C)c3c2-n2cccc2)cc1 | inconclusive: 22.2 µM [inhibitor, partial curve]
42 | NC(=O)c1c(-c2cccs2)csc1N | inconclusive: 39.5 µM [inhibitor, partial curve]
43 | Cc1ccccc1Nc1c(N)c(=O)oc2ccccc12 | active: 17.8 µM
44 | O=C(Nc1ccc(N2CCN(c3ccc(O)cc3)CC2)cc1)Oc1ccccc1 | inconclusive: 35.2 µM [inhibitor, partial curve, poor fit]
